Source: ChEMBL document CHEMBL4888484, “Replenishing the malaria drug discovery pipeline: Screening and hit evaluation of the MMV Hit Generation Library 1 (HGL1) against asexual blood stage Plasmodium falciparum ,using a nano luciferase reporter read-out” (2022)
The whole screen tested about 150,000 compounds, of which about 540 (0.36%) showed an effect of 50% or more. The list shows a part of the results.

What follows are molecules tested on Plasmodium falciparum (assay: Primary screen in NF54 nanoGlo assay, in single point, at 2uM, 72h; a lower Z score goes with more inhibition). Conditions: timepoint 72 hour.
Assay type: functional, Erythrocyte

Row | SMILES | % Inhibition [%] | Z score
1 | CC12CCN(S(=O)(=O)C3CC3)CC1C2(F)F (stereo not drawn) | -8 | 0.64
2 | COc1ccc(CNC(=O)c2cnc3c(C)cccn3c2=O)c(C)c1 | 2 | -0.32
3 | Cc1ncsc1CCN1CCN(CCc2cccs2)CC1 | -3 | 0.38
4 | CCn1c(-n2nc(CC(N)=O)nc2CN2CCCC2)nc2ccccc21 | -20 | 2.13
5 | Cc1cc(NS(=O)(=O)c2onc(C3CC3)c2Cl)c[nH]c1=O | -2 | 0.31
6 | COCCN(CC(=O)Nc1cc(N2CCN(C(=O)NC(C)C)CC2)ccc1Cl)C(=O)c1ccccc1Cl | -25 | 2.66
7 | O=S(=O)(c1cc(F)ccc1F)N1CCC[C@H]1c1nncn1Cc1ccncc1 | -6 | 1.21
8 | c1ccc(-c2noc(-c3nc(-c4cccnc4)no3)n2)cc1 | -3 | 0.35
9 | CN1C[C@@H]2C[C@H]1C(=O)N[C@H](Cc1ccccc1)C(=O)NCc1cn(nn1)CCOc1cccc(c1)C(=O)N2 | -9 | 1.54
10 | O=C(NCC1CCOCC1)c1cccc(S(=O)(=O)N[C@H]2CCNC2=O)c1 | -6 | 1.09
11 | Fc1cc(Br)cnc1CN1CCC[C@H]1c1ncn[nH]1 | 19 | -2.4
12 | Cc1nc[nH]c1-c1c(-c2ccccc2)ncn1CC1CCOCC1 | -3 | 0.24
13 | O=C(c1cc(CO)ccn1)N1CCCC[C@@H]1CCc1cccc(O)c1 | -19 | 1.78
14 | COc1cc(OC)cc(C(=O)N2CCN(C3CCCCCC3)CC2)c1 | -4 | 0.73
15 | CS(=O)(=O)C[C@H]1CN(C(=O)NCC=CC2CC2)CCO1 | 6 | -0.7
16 | Cc1nnc2ncc(-c3ccc(F)c(C(F)(F)F)c3)cn12 | -9 | 1.76
17 | COc1ccc(OC)c(C(C)NCC(C#N)CCC#N)c1 (stereo not drawn) | -10 | 1.39
18 | CCC(C)N(C(=O)c1csnc1C)C(C)CC (stereo not drawn) | -9 | 0.89
19 | O=C1CCCN1c1ccc(CNS(=O)(=O)c2cccnc2)cc1 | -13 | 1.55
20 | CCC(CC)N(CCOC)C(=O)Cn1cnnn1 | -17 | 2.31
21 | CCc1ccc(-c2nn3c(-c4ccccc4C(=O)O)nc4ccccc4c3nc2=O)cc1 | -8 | 0.97
22 | N#Cc1ccc(CN2CCN(C(=O)C3CCCC3)CC2)c(F)c1 | -20 | 1.82
23 | Cc1noc(C(C)(C)NC(=O)Nc2ccc(C(F)(F)F)nn2)n1 | -4 | 0.53
24 | O=C(c1ccc2c(=O)n3c(nc2c1)CCCC3)N1CCN(c2ccccc2)CC1 | 1 | -0.16
